According to article PMC9911399, “Two distinct binding modes provide the RNA-binding protein RbFox with extraordinary sequence specificity”:
Substitutions are numbered along the chain they refer to; changes in the protein carry UniProt numbers. Some of the results follow.

B1: ACGUGCG (DNA:RNA)
RNA: GGGAGACCGGAAUUCAGAUUGUCCACGUGCGUUAAAUCCCGUCGUAGCCACCA
DNA 1: CAATCTGAATTCCGGTCTCCC
DNA 2: TGGTGGCTACGACGGGATT
B2: CAAUGCU (DNA:RNA)
RNA: B1 RNA with A25C, C26A, G27A, G31U
DNA 1: CAATCTGAATTCCGGTCTCCC
DNA 2: TGGTGGCTACGACGGGATT
B3: GCGACUA (DNA:RNA)
RNA: B1 RNA with A25G, U28A, G29C, C30U, G31A
DNA 1: CAATCTGAATTCCGGTCTCCC
DNA 2: TGGTGGCTACGACGGGATT
B4: CAAAGAG (DNA:RNA)
RNA: B1 RNA with A25C, C26A, G27A, U28A, C30A
DNA 1: CAATCTGAATTCCGGTCTCCC
DNA 2: TGGTGGCTACGACGGGATT
B5: CACCUAG (DNA:RNA)
RNA: B1 RNA with A25C, C26A, G27C, U28C, G29U, C30A
DNA 1: CAATCTGAATTCCGGTCTCCC
DNA 2: TGGTGGCTACGACGGGATT
B6: CAGCCCG (DNA:RNA)
RNA: B1 RNA with A25C, C26A, U28C, G29C
DNA 1: CAATCTGAATTCCGGTCTCCC
DNA 2: TGGTGGCTACGACGGGATT
B7: GAGAGGC (DNA:RNA)
RNA: B1 RNA with A25G, C26A, U28A, C30G, G31C
DNA 1: CAATCTGAATTCCGGTCTCCC
DNA 2: TGGTGGCTACGACGGGATT
B8: CUGGGUC (DNA:RNA)
RNA: B1 RNA with A25C, C26U, U28G, C30U, G31C
DNA 1: CAATCTGAATTCCGGTCTCCC
DNA 2: TGGTGGCTACGACGGGATT
B9: CUAUUUA (DNA:RNA)
RNA: B1 RNA with A25C, C26U, G27A, G29U, C30U, G31A
DNA 1: CAATCTGAATTCCGGTCTCCC
DNA 2: TGGTGGCTACGACGGGATT
B10: GCCGGCU (DNA:RNA)
RNA: B1 RNA with A25G, G27C, U28G, G31U
DNA 1: CAATCTGAATTCCGGTCTCCC
DNA 2: TGGTGGCTACGACGGGATT
B11: CCGGGCC (DNA:RNA)
RNA: B1 RNA with A25C, U28G, G31C
DNA 1: CAATCTGAATTCCGGTCTCCC
DNA 2: TGGTGGCTACGACGGGATT
B12: AUGUGCG (DNA:RNA)
RNA: B1 RNA with C26U
DNA 1: CAATCTGAATTCCGGTCTCCC
DNA 2: TGGTGGCTACGACGGGATT
B13: UAGGCUG (DNA:RNA)
RNA: B1 RNA with A25U, C26A, U28G, G29C, C30U
DNA 1: CAATCTGAATTCCGGTCTCCC
DNA 2: TGGTGGCTACGACGGGATT
B14: UGGCAUG (DNA:RNA)
RNA: B1 RNA with A25U, C26G, U28C, G29A, C30U
DNA 1: CAATCTGAATTCCGGTCTCCC
DNA 2: TGGTGGCTACGACGGGATT
B15: AAUUCAA (DNA:RNA)
RNA: B1 RNA with C26A, G27U, G29C, C30A, G31A
DNA 1: CAATCTGAATTCCGGTCTCCC
DNA 2: TGGTGGCTACGACGGGATT
B16: GUAUUAU (DNA:RNA)
RNA: B1 RNA with A25G, C26U, G27A, G29U, C30A, G31U
DNA 1: CAATCTGAATTCCGGTCTCCC
DNA 2: TGGTGGCTACGACGGGATT
B17: AGGUACA (DNA:RNA)
RNA: B1 RNA with C26G, G29A, G31A
DNA 1: CAATCTGAATTCCGGTCTCCC
DNA 2: TGGTGGCTACGACGGGATT
B18: ACUACAG (DNA:RNA)
RNA: B1 RNA with G27U, U28A, G29C, C30A
DNA 1: CAATCTGAATTCCGGTCTCCC
DNA 2: TGGTGGCTACGACGGGATT
B19: UGGAGGU (DNA:RNA)
RNA: B1 RNA with A25U, C26G, U28A, C30G, G31U
DNA 1: CAATCTGAATTCCGGTCTCCC
DNA 2: TGGTGGCTACGACGGGATT
B20: CGCUAUU (DNA:RNA)
RNA: B1 RNA with A25C, C26G, G27C, G29A, C30U, G31U
DNA 1: CAATCTGAATTCCGGTCTCCC
DNA 2: TGGTGGCTACGACGGGATT
B21: GAAAAGG (DNA:RNA)
RNA: B1 RNA with A25G, C26A, G27A, U28A, G29A, C30G
DNA 1: CAATCTGAATTCCGGTCTCCC
DNA 2: TGGTGGCTACGACGGGATT
B22: GCAAUCG (DNA:RNA)
RNA: B1 RNA with A25G, G27A, U28A, G29U
DNA 1: CAATCTGAATTCCGGTCTCCC
DNA 2: TGGTGGCTACGACGGGATT
B23: CAUUUAC (DNA:RNA)
RNA: B1 RNA with A25C, C26A, G27U, G29U, C30A, G31C
DNA 1: CAATCTGAATTCCGGTCTCCC
DNA 2: TGGTGGCTACGACGGGATT
B24: GGCUUUU (DNA:RNA)
RNA: B1 RNA with A25G, C26G, G27C, G29U, C30U, G31U
DNA 1: CAATCTGAATTCCGGTCTCCC
DNA 2: TGGTGGCTACGACGGGATT
B25: UGUCCAG (DNA:RNA)
RNA: B1 RNA with A25U, C26G, G27U, U28C, G29C, C30A
DNA 1: CAATCTGAATTCCGGTCTCCC
DNA 2: TGGTGGCTACGACGGGATT
B26: AUUGAUG (DNA:RNA)
RNA: B1 RNA with C26U, G27U, U28G, G29A, C30U
DNA 1: CAATCTGAATTCCGGTCTCCC
DNA 2: TGGTGGCTACGACGGGATT
B27: ACGGCCC (DNA:RNA)
RNA: B1 RNA with U28G, G29C, G31C
DNA 1: CAATCTGAATTCCGGTCTCCC
DNA 2: TGGTGGCTACGACGGGATT
B28: UUGCAAA (DNA:RNA)
RNA: B1 RNA with A25U, C26U, U28C, G29A, C30A, G31A
DNA 1: CAATCTGAATTCCGGTCTCCC
DNA 2: TGGTGGCTACGACGGGATT
B29: UGCUAUC (DNA:RNA)
RNA: B1 RNA with A25U, C26G, G27C, G29A, C30U, G31C
DNA 1: CAATCTGAATTCCGGTCTCCC
DNA 2: TGGTGGCTACGACGGGATT
B30: UCCGCAA (DNA:RNA)
RNA: B1 RNA with A25U, G27C, U28G, G29C, C30A, G31A
DNA 1: CAATCTGAATTCCGGTCTCCC
DNA 2: TGGTGGCTACGACGGGATT
B31: CUCGAGU (DNA:RNA)
RNA: GGGAGACCGGAAUUCAGAUUGUCCCUCGAGUUUAAAUCCCGUCGUAGCCACCA
DNA 1: CAATCTGAATTCCGGTCTCCC
DNA 2: TGGTGGCTACGACGGGATT

target: T1, RBFOX1 RRM RbFoxmut (Fox-RRM*) (Homo sapiens, UniProt Q9NWB1 109-208, R118D;E147R;N151S;E152T); assay: EMSA; HiTS-Eq, 1 nM pool, 10 min; buffer printed only for the single-RNA assays: 10 mM Tris pH 7.5, 150 mM NaCl, 3.4 mM EDTA, 0.001% NP-40, 30 C; conditions: tags: His6 N-terminal (pET28a); label: 5' 32P
T1 sequence: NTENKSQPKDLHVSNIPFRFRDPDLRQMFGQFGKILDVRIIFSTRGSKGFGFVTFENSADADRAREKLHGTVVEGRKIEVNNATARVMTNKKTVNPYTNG
Outline: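 Purified RbFox RRM, wild type or mutant, was incubated for 10 min in 50 µL with 1 nM of a 5′-radiolabelled RNA pool carrying 7 randomized nucleotides, whose flanks were annealed to DNA oligonucleotides, over a series of increasing protein concentrations. Unbound RNA was resolved on 8% native PAGE, cut out, reverse-transcribed, barcoded by PCR and sequenced on an Illumina HiSeq 2500. Relative association constants were derived from changes in read counts for each RNA species versus the control reaction and normalised to the cognate motif.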

Binder | binding signal
B1 | 0.182 KA relative to UGCAUGU
B2 | 0.0987 KA relative to UGCAUGU
B3 | 0.0829 KA relative to UGCAUGU
B4 | 0.106 KA relative to UGCAUGU
B5 | 0.115 KA relative to UGCAUGU
B6 | 0.0748 KA relative to UGCAUGU
B7 | 0.0763 KA relative to UGCAUGU
B8 | 0.179 KA relative to UGCAUGU
B9 | 0.109 KA relative to UGCAUGU
B10 | 0.0905 KA relative to UGCAUGU
B11 | 0.194 KA relative to UGCAUGU
B12 | 0.231 KA relative to UGCAUGU
B13 | 0.128 KA relative to UGCAUGU
B14 | 1.17 KA relative to UGCAUGU
B15 | 0.0801 KA relative to UGCAUGU
B16 | 0.157 KA relative to UGCAUGU

Binder | binding signal
B17 | 0.102 KA relative to UGCAUGU
B18 | 0.0827 KA relative to UGCAUGU
B19 | 0.105 KA relative to UGCAUGU
B20 | 0.0918 KA relative to UGCAUGU
B21 | 0.035 KA relative to UGCAUGU
B22 | 0.0721 KA relative to UGCAUGU
B23 | 0.119 KA relative to UGCAUGU
B24 | 0.0624 KA relative to UGCAUGU
B25 | 0.144 KA relative to UGCAUGU
B26 | 0.12 KA relative to UGCAUGU
B27 | 0.0655 KA relative to UGCAUGU
B28 | 0.0864 KA relative to UGCAUGU
B29 | 0.255 KA relative to UGCAUGU
B30 | 0.0878 KA relative to UGCAUGU
B31 | 0.121 KA relative to UGCAUGU
